Test results published in PMC9350134.
No constants are given. Whether binding was seen depends on the method and setting. In cells and extracts the contact can be indirect. Some binding calls cover weakened binding; strength is not graded here. For part of these data: Sequences can lack the tags named with a protein.

Chains of the proteins cited; added tags and fusions are not shown. Lines headed by an entry give the natural chain unless they say otherwise; changes in a name come on top. A line that says so, or that is headed by a name, gives the form on record, which may keep a tag or linker. Residues count along the entry.
UniProt P13569: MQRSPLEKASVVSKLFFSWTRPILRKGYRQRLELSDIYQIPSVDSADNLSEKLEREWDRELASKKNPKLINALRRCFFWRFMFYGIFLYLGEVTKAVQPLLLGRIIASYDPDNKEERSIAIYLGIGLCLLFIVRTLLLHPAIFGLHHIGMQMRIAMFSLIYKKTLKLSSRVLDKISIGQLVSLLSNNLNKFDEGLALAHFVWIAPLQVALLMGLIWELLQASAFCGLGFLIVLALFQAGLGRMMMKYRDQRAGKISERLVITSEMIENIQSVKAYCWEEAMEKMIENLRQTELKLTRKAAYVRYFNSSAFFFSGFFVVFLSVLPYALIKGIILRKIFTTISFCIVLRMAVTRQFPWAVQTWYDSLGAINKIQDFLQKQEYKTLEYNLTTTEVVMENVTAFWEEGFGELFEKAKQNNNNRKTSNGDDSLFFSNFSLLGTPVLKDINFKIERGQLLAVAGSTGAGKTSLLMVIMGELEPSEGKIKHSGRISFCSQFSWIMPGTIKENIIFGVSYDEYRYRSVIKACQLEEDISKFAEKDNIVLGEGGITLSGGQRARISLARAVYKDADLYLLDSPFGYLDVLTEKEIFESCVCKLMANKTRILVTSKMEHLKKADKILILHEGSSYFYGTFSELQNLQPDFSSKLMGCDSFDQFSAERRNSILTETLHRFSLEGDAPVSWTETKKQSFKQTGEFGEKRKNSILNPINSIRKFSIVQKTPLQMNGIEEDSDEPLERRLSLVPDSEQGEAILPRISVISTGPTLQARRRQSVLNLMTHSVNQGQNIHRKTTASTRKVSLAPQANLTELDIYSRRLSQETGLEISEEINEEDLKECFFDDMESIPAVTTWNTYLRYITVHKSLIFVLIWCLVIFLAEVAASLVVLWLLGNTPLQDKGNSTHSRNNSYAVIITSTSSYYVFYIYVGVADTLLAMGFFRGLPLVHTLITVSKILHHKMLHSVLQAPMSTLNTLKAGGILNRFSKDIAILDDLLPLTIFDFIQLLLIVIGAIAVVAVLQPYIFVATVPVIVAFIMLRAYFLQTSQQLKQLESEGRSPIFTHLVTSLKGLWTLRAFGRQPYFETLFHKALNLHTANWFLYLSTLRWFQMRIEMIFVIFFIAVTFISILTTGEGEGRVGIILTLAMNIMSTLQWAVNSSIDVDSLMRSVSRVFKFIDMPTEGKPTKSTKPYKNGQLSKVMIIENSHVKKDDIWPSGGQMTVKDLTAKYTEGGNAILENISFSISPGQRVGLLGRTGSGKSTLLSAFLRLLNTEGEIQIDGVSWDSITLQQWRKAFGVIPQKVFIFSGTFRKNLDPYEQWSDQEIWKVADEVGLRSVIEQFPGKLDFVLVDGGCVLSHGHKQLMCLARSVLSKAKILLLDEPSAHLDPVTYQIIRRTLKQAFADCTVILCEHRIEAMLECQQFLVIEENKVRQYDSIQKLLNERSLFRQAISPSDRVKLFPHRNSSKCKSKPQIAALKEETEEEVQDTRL
ΔF508‐CFTR (cystic fibrosis transmembrane conductance regulator with deletion of phenylalanine 508) (P13569, form named): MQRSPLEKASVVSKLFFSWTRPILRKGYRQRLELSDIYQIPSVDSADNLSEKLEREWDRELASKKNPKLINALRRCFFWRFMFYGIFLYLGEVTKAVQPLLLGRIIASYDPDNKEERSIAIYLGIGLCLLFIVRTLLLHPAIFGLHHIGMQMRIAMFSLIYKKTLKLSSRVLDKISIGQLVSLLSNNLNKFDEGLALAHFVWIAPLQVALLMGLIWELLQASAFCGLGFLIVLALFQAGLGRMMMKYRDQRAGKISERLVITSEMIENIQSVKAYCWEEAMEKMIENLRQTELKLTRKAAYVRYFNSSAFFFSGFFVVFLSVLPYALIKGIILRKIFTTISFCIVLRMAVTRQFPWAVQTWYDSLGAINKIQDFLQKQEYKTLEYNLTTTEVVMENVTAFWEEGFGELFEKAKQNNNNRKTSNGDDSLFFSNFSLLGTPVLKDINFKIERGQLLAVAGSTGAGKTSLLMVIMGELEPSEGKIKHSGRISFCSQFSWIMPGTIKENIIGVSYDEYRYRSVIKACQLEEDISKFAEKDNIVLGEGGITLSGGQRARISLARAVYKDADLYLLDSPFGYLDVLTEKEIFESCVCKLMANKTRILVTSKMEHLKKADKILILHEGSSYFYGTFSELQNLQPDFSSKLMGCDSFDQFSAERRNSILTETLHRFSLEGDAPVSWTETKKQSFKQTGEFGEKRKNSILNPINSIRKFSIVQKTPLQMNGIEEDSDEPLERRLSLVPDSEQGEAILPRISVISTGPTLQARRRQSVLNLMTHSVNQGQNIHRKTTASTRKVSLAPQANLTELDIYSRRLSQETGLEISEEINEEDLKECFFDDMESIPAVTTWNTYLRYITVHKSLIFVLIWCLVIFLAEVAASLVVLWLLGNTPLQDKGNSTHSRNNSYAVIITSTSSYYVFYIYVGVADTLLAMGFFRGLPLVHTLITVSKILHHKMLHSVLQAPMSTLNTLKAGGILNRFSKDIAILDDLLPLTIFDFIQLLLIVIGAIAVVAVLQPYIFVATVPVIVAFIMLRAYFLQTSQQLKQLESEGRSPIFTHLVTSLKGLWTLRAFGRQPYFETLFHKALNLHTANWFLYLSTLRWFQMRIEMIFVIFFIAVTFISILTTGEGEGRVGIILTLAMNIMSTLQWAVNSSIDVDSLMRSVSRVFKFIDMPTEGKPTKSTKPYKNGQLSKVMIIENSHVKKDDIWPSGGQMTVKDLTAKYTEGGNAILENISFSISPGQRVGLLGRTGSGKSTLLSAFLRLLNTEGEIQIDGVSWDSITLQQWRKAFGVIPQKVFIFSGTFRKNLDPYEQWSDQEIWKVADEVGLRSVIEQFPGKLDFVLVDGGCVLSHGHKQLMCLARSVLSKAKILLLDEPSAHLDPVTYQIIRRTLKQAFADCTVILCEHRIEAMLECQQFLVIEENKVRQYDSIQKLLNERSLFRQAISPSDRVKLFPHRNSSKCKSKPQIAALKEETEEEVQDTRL
UniProt Q15363, residues 21-201: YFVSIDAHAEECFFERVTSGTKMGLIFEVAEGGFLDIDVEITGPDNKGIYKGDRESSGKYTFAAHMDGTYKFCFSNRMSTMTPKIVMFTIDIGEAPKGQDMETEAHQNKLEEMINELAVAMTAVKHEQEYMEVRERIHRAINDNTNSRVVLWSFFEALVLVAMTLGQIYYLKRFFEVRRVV

T1: p.H723R‐pendrin (human) (UniProt O43511)
T1 sequence (chain, core-glycosylated, N-linked): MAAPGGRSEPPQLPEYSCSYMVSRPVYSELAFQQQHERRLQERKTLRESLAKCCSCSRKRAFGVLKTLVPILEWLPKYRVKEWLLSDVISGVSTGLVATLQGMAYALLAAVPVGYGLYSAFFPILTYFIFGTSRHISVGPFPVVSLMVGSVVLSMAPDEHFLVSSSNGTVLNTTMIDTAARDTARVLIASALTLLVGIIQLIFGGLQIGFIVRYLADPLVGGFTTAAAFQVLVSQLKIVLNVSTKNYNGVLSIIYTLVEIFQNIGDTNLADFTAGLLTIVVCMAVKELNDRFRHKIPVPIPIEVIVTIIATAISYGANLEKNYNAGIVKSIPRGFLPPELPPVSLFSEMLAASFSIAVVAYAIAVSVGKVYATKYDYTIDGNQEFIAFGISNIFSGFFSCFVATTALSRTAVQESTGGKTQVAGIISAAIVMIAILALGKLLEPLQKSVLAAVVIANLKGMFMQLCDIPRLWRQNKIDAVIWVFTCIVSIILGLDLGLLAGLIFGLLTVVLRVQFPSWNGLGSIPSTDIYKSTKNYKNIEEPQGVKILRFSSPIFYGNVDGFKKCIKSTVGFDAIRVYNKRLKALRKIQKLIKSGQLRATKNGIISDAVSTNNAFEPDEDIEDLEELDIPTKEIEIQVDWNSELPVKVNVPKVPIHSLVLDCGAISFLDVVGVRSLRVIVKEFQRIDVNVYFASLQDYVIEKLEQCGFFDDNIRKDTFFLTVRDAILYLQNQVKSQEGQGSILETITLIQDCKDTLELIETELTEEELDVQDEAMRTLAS

T2: DYK‐tagged TMED3 (TMED3‐DYK) (human) (UniProt Q9Y3Q3)
T2 sequence: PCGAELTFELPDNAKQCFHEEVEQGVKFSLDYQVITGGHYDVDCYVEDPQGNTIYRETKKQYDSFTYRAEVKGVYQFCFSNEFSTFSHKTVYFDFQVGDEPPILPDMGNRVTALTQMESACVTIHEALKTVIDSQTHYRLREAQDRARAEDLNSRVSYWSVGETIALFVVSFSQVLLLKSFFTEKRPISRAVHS

T3: GST‐fused TMED3‐GOLD (GST‐TMED3‐GOLD) (human) (UniProt Q9Y3Q3)
T3 sequence: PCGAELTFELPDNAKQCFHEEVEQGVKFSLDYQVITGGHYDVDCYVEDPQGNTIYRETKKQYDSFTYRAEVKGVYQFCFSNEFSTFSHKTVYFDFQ

T4: WT‐pendrin (human) (UniProt O43511)
T4 sequence: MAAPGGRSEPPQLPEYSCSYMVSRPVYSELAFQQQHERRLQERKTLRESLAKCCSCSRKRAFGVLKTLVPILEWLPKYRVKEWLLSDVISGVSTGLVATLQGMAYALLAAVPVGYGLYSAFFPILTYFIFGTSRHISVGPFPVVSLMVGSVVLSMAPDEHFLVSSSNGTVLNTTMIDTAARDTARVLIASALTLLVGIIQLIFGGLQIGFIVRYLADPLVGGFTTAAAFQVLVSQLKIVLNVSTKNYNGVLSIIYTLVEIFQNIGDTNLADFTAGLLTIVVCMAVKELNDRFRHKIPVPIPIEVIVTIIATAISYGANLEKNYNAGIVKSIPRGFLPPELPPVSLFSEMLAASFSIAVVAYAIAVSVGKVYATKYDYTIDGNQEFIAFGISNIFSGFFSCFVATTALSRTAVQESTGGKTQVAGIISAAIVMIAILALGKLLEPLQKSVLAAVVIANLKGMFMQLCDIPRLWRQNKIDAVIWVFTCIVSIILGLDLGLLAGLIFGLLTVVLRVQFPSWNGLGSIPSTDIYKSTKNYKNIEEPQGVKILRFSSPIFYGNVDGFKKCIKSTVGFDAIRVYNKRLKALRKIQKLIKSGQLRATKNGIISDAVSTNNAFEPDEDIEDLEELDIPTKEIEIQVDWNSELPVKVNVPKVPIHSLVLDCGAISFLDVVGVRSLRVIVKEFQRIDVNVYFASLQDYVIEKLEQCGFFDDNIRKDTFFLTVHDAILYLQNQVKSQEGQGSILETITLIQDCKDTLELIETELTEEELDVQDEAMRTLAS

T5: DYK‐tagged TMED10 (TMED10‐DYK) (human) (UniProt P49755)
T5 sequence: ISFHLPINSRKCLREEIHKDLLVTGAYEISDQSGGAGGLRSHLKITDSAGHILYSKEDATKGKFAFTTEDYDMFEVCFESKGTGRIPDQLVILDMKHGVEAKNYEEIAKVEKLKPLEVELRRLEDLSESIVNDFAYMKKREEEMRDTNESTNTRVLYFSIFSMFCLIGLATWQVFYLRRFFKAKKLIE

T6: DYK‐tagged TMED9 (TMED9‐DYK) (human) (UniProt Q9BVK6)
T6 sequence: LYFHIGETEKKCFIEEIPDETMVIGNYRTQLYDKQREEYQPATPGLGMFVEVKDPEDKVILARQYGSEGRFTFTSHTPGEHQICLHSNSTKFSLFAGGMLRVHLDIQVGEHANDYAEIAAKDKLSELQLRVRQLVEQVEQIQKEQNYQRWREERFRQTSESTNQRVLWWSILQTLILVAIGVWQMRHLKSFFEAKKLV


Legend:
[1] = target: T1, p.H723R‐pendrin (human); assay: co-IP
[2] = target: ΔF508‐CFTR (cystic fibrosis transmembrane conductance regulator with deletion of phenylalanine 508) (human) (UniProt P13569); assay: co-IP
[3] = target: T2, DYK‐tagged TMED3 (TMED3‐DYK) (human); assay: co-IP; HEK293 cells transfected with DYK‐tagged TMED2, 3, 9 or 10, ARF1‐Q71L in some cells; precipitated with anti‐DYK, blotted with antibodies against each TMED
[4] = target: T3, GST‐fused TMED3‐GOLD (GST‐TMED3‐GOLD) (human); assay: pull-down; GST‐fused TMED3 proteins bound to glutathione Sepharose, incubated overnight at 4 °C with lysates of HEK293 cells expressing CFTR; in Figure 5D,E cells with ARF1‐Q71L and 1‐deoxynojirimycin (100 µM), kifunensine (10 µM) or swainsonine (100 µM); only the target purified
[5] = target: WT‐CFTR (wild‐type cystic fibrosis transmembrane conductance regulator) (human) (UniProt P13569); assay: co-IP
[6] = target: T4, WT‐pendrin (human); assay: co-IP
[7] = target: T5, DYK‐tagged TMED10 (TMED10‐DYK) (human); assay: co-IP; HEK293 cells transfected with DYK‐tagged TMED2, 3, 9 or 10, ARF1‐Q71L in some cells; precipitated with anti‐DYK, blotted with antibodies against each TMED
[8] = target: DYK‐tagged TMED2 (TMED2‐DYK) (human) (UniProt Q15363); assay: as above
[9] = target: T6, DYK‐tagged TMED9 (TMED9‐DYK) (human); assay: as above
[10] = target: HA‐tagged ΔF508‐CFTR (extracellular‐tagged full‐length HA‐ΔF508‐CFTR) (human) (UniProt P13569); assay: co-IP
[11] = target: T1, p.H723R‐pendrin (human); assay: co-IP; PANC‐1 cells, TMED3 and p.H723R‐pendrin, GRASP55 and/or ARF1‐Q71L co‐expressed in some cells; precipitating antibody not stated (Figure 4E,F)
[12] = target: T3, GST‐fused TMED3‐GOLD (GST‐TMED3‐GOLD) (human); assay: pull-down; only the target purified

binding [1]	binding [2]	binding [3]	Molecule	also measured
no binding	no binding	binds	TMED2 (transmembrane emp24 domain‐containing protein 2) (from UniProt Q15363 21-201)	–
–	–	–	HA‐tagged ΔF508‐CFTR (extracellular‐tagged full‐length HA‐ΔF508‐CFTR) (from UniProt P13569 1-1480)	binding [4]: binds
–	–	–	ΔF508‐CFTR (cystic fibrosis transmembrane conductance regulator with deletion of phenylalanine 508) (from UniProt P13569 1-1480)	binding [4]: binds
no binding	no binding	binds	TMED9 (transmembrane emp24 domain‐containing protein 9) (from UniProt Q9BVK6 38-235)	–
binds	binds	–	TMED3 (transmembrane emp24 domain‐containing protein 3) (protein, UniProt Q9Y3Q3 24-217) PCGAELTFELPDNAKQCFHEEVEQGVKFSLDYQVITGGHYDVDCYVEDPQGNTIYRETKKQYDSFTYRAEVKGVYQFCFSNEFSTFSHKTVYFDFQVGDEPPILPDMGNRVTALTQMESACVTIHEALKTVIDSQTHYRLREAQDRARAEDLNSRVSYWSVGETIALFVVSFSQVLLLKSFFTEKRPISRAVHS	binding [5]: binds; binding [6]: binds; binding [7]: binds; binding [8]: binds; binding [9]: binds
–	–	–	DYK‐tagged TMED3 (TMED3‐DYK) (protein, UniProt Q9Y3Q3 24-217) PCGAELTFELPDNAKQCFHEEVEQGVKFSLDYQVITGGHYDVDCYVEDPQGNTIYRETKKQYDSFTYRAEVKGVYQFCFSNEFSTFSHKTVYFDFQVGDEPPILPDMGNRVTALTQMESACVTIHEALKTVIDSQTHYRLREAQDRARAEDLNSRVSYWSVGETIALFVVSFSQVLLLKSFFTEKRPISRAVHS	binding [10]: binds; binding [11]: binds
no binding	no binding	binds	TMED10 (transmembrane emp24 domain‐containing protein 10) (protein, UniProt P49755 32-219) ISFHLPINSRKCLREEIHKDLLVTGAYEISDQSGGAGGLRSHLKITDSAGHILYSKEDATKGKFAFTTEDYDMFEVCFESKGTGRIPDQLVILDMKHGVEAKNYEEIAKVEKLKPLEVELRRLEDLSESIVNDFAYMKKREEEMRDTNESTNTRVLYFSIFSMFCLIGLATWQVFYLRRFFKAKKLIE	–
–	–	–	p.H723R‐pendrin (protein, UniProt O43511 1-780, core-glycosylated, N-linked) MAAPGGRSEPPQLPEYSCSYMVSRPVYSELAFQQQHERRLQERKTLRESLAKCCSCSRKRAFGVLKTLVPILEWLPKYRVKEWLLSDVISGVSTGLVATLQGMAYALLAAVPVGYGLYSAFFPILTYFIFGTSRHISVGPFPVVSLMVGSVVLSMAPDEHFLVSSSNGTVLNTTMIDTAARDTARVLIASALTLLVGIIQLIFGGLQIGFIVRYLADPLVGGFTTAAAFQVLVSQLKIVLNVSTKNYNGVLSIIYTLVEIFQNIGDTNLADFTAGLLTIVVCMAVKELNDRFRHKIPVPIPIEVIVTIIATAISYGANLEKNYNAGIVKSIPRGFLPPELPPVSLFSEMLAASFSIAVVAYAIAVSVGKVYATKYDYTIDGNQEFIAFGISNIFSGFFSCFVATTALSRTAVQESTGGKTQVAGIISAAIVMIAILALGKLLEPLQKSVLAAVVIANLKGMFMQLCDIPRLWRQNKIDAVIWVFTCIVSIILGLDLGLLAGLIFGLLTVVLRVQFPSWNGLGSIPSTDIYKSTKNYKNIEEPQGVKILRFSSPIFYGNVDGFKKCIKSTVGFDAIRVYNKRLKALRKIQKLIKSGQLRATKNGIISDAVSTNNAFEPDEDIEDLEELDIPTKEIEIQVDWNSELPVKVNVPKVPIHSLVLDCGAISFLDVVGVRSLRVIVKEFQRIDVNVYFASLQDYVIEKLEQCGFFDDNIRKDTFFLTVRDAILYLQNQVKSQEGQGSILETITLIQDCKDTLELIETELTEEELDVQDEAMRTLAS	binding [12]: binds
